Whole data set: some 110,000 compounds, median “z-score” near -0.1, cut for the highest 2% near 2. Some of the results follow. Active and inactive are the calls of the source.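 The calls were made as follows: active = z-score in the third read window above 3 or below -3; inactive = the rest.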

The experiment addresses Metabotropic glutamate receptor 8 (Rattus norvegicus) (UniProt P70579). Kind of experiment: mGluR8 Gi/Go-coupled signaling modulation – cell-based, rat, thallium flux, HTS, primary screen (AID 488969). Conditions: HEK293 rat mGluR8, GIRK (G protein-gated inwardly rectifying potassium channel) thallium flux, FluoZin2; at 10 µM; stronger effect = higher value; submaximal glutamate (EC20) added with thallium.
Sequence of UniProt P70579 (P70579 whole entry, looked up): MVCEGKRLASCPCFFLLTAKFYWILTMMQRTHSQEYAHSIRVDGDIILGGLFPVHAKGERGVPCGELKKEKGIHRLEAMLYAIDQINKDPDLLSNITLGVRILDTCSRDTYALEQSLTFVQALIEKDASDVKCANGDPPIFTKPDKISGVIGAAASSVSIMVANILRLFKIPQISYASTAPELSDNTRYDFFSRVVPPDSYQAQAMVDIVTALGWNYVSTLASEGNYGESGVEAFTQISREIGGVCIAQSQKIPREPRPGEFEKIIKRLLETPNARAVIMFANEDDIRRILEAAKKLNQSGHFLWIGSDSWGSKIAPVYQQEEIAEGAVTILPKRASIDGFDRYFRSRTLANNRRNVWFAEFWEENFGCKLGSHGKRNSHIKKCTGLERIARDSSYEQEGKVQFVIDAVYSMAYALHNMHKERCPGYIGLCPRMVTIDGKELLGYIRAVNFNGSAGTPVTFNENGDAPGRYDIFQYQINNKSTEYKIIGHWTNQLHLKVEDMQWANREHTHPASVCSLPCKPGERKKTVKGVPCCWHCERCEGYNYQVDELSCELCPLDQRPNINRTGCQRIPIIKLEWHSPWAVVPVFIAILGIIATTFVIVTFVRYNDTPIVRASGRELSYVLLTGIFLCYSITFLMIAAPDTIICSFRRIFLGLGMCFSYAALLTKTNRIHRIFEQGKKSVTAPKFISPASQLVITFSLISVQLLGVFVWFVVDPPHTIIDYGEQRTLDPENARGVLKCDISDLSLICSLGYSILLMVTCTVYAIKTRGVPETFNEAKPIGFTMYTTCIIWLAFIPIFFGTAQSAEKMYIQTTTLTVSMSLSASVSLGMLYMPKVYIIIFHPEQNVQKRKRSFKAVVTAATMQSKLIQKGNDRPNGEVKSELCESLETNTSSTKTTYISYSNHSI
As to `CCNc1[nH]c(=O)n(C)c(=O)c1N=O`, the z-score was -0.0278.

As to `O=C(O)c1ccc(Oc2cccc([N+](=O)[O-])c2)cc1C(=O)O`, the z-score was 0.0004. With `COCCn1c(C)cc(C(=O)CSc2cc(C)c3ccccc3n2)c1C` the figure was 0.0693. The figure for `CC1(N2CCCCC2)CC2(O)C(=[N+]1[O-])CCC/C2=N\O` (configuration not stated) is 1.09; for `Cn1c(=O)c2c(n(Cc3ccccc3)c1=O)NC(=O)C2CC(=O)O` (configuration not stated) it is 0.127. As to `CC1Cc2ccccc2N1C(=O)COC(=O)Cn1cnc2ccccc2c1=O` (configuration not stated), the z-score is -0.55. With `S=c1nc[nH]c2c1sc1nc(-c3ccccc3)c3c(c12)CCCC3` the figure was active: 7.83; with `O=C(NC1CCCCCC1)c1ccccc1-c1ccccc1`, -0.423; with `CCn1nc(C)c(NC(=O)/C=C/c2cnn(C)c2C)c1C`, 0.775. The figure for `CCC1=NNc2cccc3c(OC)ccc1c23` is -0.517. For `CCCC(=O)Nc1c(C)n[nH]c1C`, the z-score was -0.199. With `Cc1nnc(SCC(=O)N/N=C/c2cn(-c3ccccc3)nc2-c2ccc(F)cc2)n1-c1ccccc1` the figure was -0.987.

Molecule `COc1ccc(C(O)c2nc3ccccc3s2)cc1` (configuration not stated) came in with a z-score of -0.214. The figure for `CC(=O)Nc1ccc(S(=O)(=O)N(Cc2ccccc2)C(C)C)cc1` is -0.457; for `CCN(CC)c1ccc(NC(=O)c2ccco2)c(C)c1` it is 0.295; for `O=c1oc2cc(Cl)ccc2n1CSc1nc2ccccc2s1` it is -0.971.

The molecule `O=C(Nc1ccc(Cl)cc1)Nc1nnc(CSCc2ccc(Cl)cc2)s1` came in with a z-score of -0.0388. Turning to `CN1CCN(CC(=O)Nc2ccc(Cl)cc2Cl)CC1`, the z-score turned out to be 0.743.

Consider `Cc1cccc2cc(-c3nc4c(C)cccn4c3NCc3ccco3)c(=O)[nH]c12`, for which the z-score is -0.347. `O=[N+]([O-])c1ccccc1-c1ccc(/C=N/n2cnnc2)o1` gave a z-score of -0.255.

With `O=C(/C=C/c1c(Cl)cccc1Cl)NCc1ccco1`, the z-score amounted to 0.108. The figure for `Cc1ccc(-n2c(SCC(=O)N/N=C/c3c(C)nn(-c4ccccc4)c3C)nc3ccccc3c2=O)cc1` is -0.402. With `N#Cc1ccc(COC(=O)c2ccc(N3CCCC3)c([N+](=O)[O-])c2)cc1` the figure was 0.0161; with `CCOC(=O)C1=C(C)Nc2ccccc2N=C1NC(=O)Cc1ccc(Br)cc1`, 0.617. In the case of `O=C(CN1C(=O)CCS(=O)(=O)c2ccccc21)NCc1ccccc1`, the z-score came to 0.305. The figure for `CC(=O)c1ccc(Sc2ccccc2)cc1` is 0.117; for `COc1ccc(/C=N/N=C2/NC(=O)C(CC(=O)O)S2)cc1OCc1ccc(Cl)cc1` (configuration not stated) it is 0.15; for `CN=C1CC(SC)=C1c1ccc(C)cc1` it is 0.256. For the molecule `O=C(N/N=C/c1ccc(OC(=O)c2ccccc2)c([N+](=O)[O-])c1)c1ccc(O)cc1`, the z-score was -0.231. With `CCOC(=O)Cc1csc(NC(=O)COc2ccc(OC)cc2)n1` the figure was 0.0541. With `COc1ccccc1C1CC(c2ccc(Cl)cc2)Nc2ncnn21` (configuration not stated) the figure was -0.498; with `Clc1ccc(N/N=C/c2cccnc2)cc1`, -0.296.

As for `CC1(C)CC2CC(C)(CN2C(=O)c2cc(-c3ccccc3O)on2)C1` (configuration not stated), the z-score is 0.0947. The figure for `NS(=O)(=O)c1ccc(NC(=S)NC(=O)/C=C/c2ccco2)cc1` is -0.0753; for `O=C(c1cc(-c2ccc(Cl)cc2Cl)on1)N1CCOCC1` it is -0.321. The figure for `CC(=O)Nc1ccc(S(=O)(=O)N2CCC(NC(C)=O)(c3cccc(F)c3)CC2)cc1` is -0.024; for `Cc1cc(-c2nc3cccnc3s2)ccc1NS(=O)(=O)c1ccc2c(c1)OCCO2` it is -0.0979. `O=C(c1ccc2c(c1)OCO2)N1CCN=C1SCc1cccnc1` had a z-score of -0.333.

As to `COC(=O)c1ccccc1NC1OC(=O)c2ccccc21` (configuration not stated), the z-score was -0.205. The figure for `CC1CCN(CC(O)COCCC23CC4CC(CC(C4)C2)C3)CC1` (configuration not stated) is 1.17; for `CCn1c(C(=O)NC(C)c2ccc3c(c2)OCCO3)cc2sccc21` (configuration not stated) it is 1.2. With `CC(Nc1nc(N2CCN(S(C)(=O)=O)CC2)nc2ccccc12)c1ccccc1` (configuration not stated), the z-score was 0.936. The figure for `CCC(=O)N(CCC(c1ccccc1)c1ccco1)Cc1cccs1` (configuration not stated) is -0.184; for `CS(=O)(=O)N(CC(=O)Nc1ccccc1C(=O)N1CCOCC1)c1ccc2c(c1)OCO2` it is 0.235. Turning to `CC(C)NS(=O)(=O)c1ccc2c(c1)NCC2`, the z-score was -0.137. In turn, `CN(CC(=O)NCCC1=CCCCC1)S(=O)(=O)c1ccc2c(c1)c(=O)n(C)c(=O)n2C` had a z-score of 0.178. The figure for `c1ccc2c(N3CCOCC3)nc(N3CCOCC3)nc2c1` is 0.0684; for `Cc1ccc(S(=O)(=O)N2CCN(S(=O)(=O)N(C)C)CC2)c(C)c1` it is -0.000969; for `CC(=O)NC1(C(F)(F)F)NC(=O)N(CC(C)C)C1=O` (configuration not stated) it is -0.417. The figure for `O=C(c1cnn2ccccc12)N1CCCc2ccccc21` is 0.126; for `COC(=O)c1ccc(Oc2coc3cc(OCc4cnn(-c5ccccc5)c4)ccc3c2=O)cc1` it is -0.142. The figure for `O=C(NCC(c1cccnc1)N1CCN(c2ccccc2F)CC1)c1cccc(Cl)c1` (configuration not stated) is 0.459; for `COC1(OC)N=C(N)C2(C#N)C(c3ccc(C)cc3)C12C#N` (configuration not stated) it is 0.308. `Cn1cc(Cl)c(-c2nc3ccccc3[nH]2)n1` came in with a z-score of 0.347. With `Cc1ccccc1-c1nc(CS(=O)(=O)CC(=O)N(C)C2CCCCC2)c(C)o1` the figure was -0.373. The figure for `COc1cccc(/C(O)=C2\C(=O)C(=O)N(c3ccccn3)C2c2cccc(OC)c2OC)c1` (configuration not stated) is -0.797; for `CC(C)NC(=O)C1CCCN(c2nnc(-n3cccc3)s2)C1` (configuration not stated) it is 0.428; for `O=C(NCCOC(=O)c1ccc(C(=O)OCCNC(=O)c2ccccc2)o1)c1ccccc1` it is -0.597.

`O=C(COC(=O)/C=C/c1cccc(Cl)c1)NCCC1=CCCCC1` showed a z-score of -0.31.

In the case of `CS/C(=N\S(=O)(=O)c1cccs1)Nc1ccc(N2CCOCC2)cc1`, the z-score is 0.986. For `Cc1cc(C=O)c(C)n1-c1sc2c(c1C(=O)O)CCCC2`, the z-score is -0.718. Molecule `CC1CN(C(=O)COC(=O)c2ccc(N)c([N+](=O)[O-])c2)CC(C)O1` (configuration not stated) returned a z-score of 0.107.

The molecule `COc1cccc(NC(=O)C2C3CCC4C(CCC32)C4(Cl)Cl)c1` (configuration not stated) returned a z-score of 0.14. With `CC(C)(C)c1ccccc1OCCOCCSc1ncccn1` the figure was -0.0709; with `COc1cccc(NC(=S)NNC(=O)Cn2nc(C(F)(F)F)cc2C)c1`, 0.573; with `CC(C(=O)N1CCOCC1)c1ccc([N+](=O)[O-])cc1` (configuration not stated), 0.149. The figure for `CCC(C)n1c(C)nc2c(c1=O)c1nc3ccccc3nc1n2CCC1=CCCCC1` (configuration not stated) is -0.167; for `O=C(Cn1c(=O)c2c(ncn2Cc2ccccc2)n(Cc2ccccc2)c1=O)NC1CC1` it is -0.401. With `CCCCOc1ccc(C(O)(CC)CCN2CCOCC2)cc1` (configuration not stated) the figure was -0.713. In turn, `COc1ccc(C(=O)n2ccc(C)n2)cc1Br` showed a z-score of 0.834. For the molecule `Clc1ccc(Cn2ncc3c(N4CCCCC4)ncnc32)cc1`, the z-score was -0.535.

As to `CCN1CCN(C(=O)c2cc3c(=O)n(C)c4ccccc4c3n2C)CC1`, the z-score is -0.301. Turning to `CC1CN(CN2C(=O)c3ccccc3C2=O)CC(C)O1` (configuration not stated), the z-score was -0.164. With `O=c1[nH]c2ccc(NC(=S)Nc3ccc(Cl)cc3)cc2[nH]1` the figure was 0.426. The figure for `CCN(CC)C(=O)CSc1nnc(C2CCCCC2)o1` is 0.599; for `Cc1ccc(-c2cc(C(=O)NCc3cnn(C)c3C)c3cc(Br)ccc3n2)cc1` it is -0.453; for `O=C(CN1CCN(C(=O)c2ccccc2)CC1)Nc1ncc(Br)cc1Br` it is -0.408. With `O=[N+]([O-])c1cc2c(cc1/C=N\NS(=O)(=O)c1ccccc1)OCO2` the figure was -0.112. Molecule `O=C(COC(=O)c1ccc(S(=O)(=O)NCc2ccco2)cc1)NC1CCCCCC1` registered a z-score of -0.145. With `N#CCCSCc1ccc2oc(C(=O)O)cc2c1` the figure was 1.68.

`O=C(O)C1CC(=O)n2c(nc3ccccc32)S1` (configuration not stated) gave a z-score of 0.555.

`O=S1(=O)CCN2C(c3ccc4c(c3)CCCC4)=CSC2=N1`: the z-score was -0.133. With `COc1ccc(NS(=O)(=O)c2ccc3oc4ccccc4c3c2)cn1` the figure was 0.829. The figure for `Cn1c(=O)cc(OCC(=O)N2CCC(N3CCCCC3)CC2)c2ccccc21` is 1.05; for `CC(=O)Nc1sc(/C(C#N)=C\c2cccc(Cl)c2)nc1-c1ccc(C)cc1` it is -0.172; for `NS(=O)(=O)c1ccc(CCNC(=O)c2ccc(S(=O)(=O)N3CCCCC3)cc2)cc1` it is -0.222. `O=C(CSc1nc2[nH]ncc2c(=O)n1-c1ccccc1Br)NCc1ccco1` gave a z-score of -0.293. With `Cc1onc(-c2ccccc2)c1C(=O)Nc1ccnn1C1CCCCC1` the figure was 0.16. In turn, `N#Cc1c(NC(=O)CSc2n[nH]c(N)n2)oc(-c2ccccc2)c1-c1ccccc1` yielded a z-score of -1.36. With `Cc1cc(-c2nn(-c3ccccc3)cc2/C=C2\SC(N)=NC2=O)ccc1OC(C)C` the figure was -0.0568; with `CCCn1c2ccccc2c2nnc(SCC(=O)Nc3nnc(CC(=O)OCC)s3)nc21`, -0.216. The figure for `CC(C)(C)n1nnnc1C(c1cccs1)N(Cc1cccnc1)Cc1ccccc1Cl` (configuration not stated) is 0.295; for `Cc1cccc(NC(=O)CSc2nc(N)cc(N)n2)c1` it is -0.298; for `Cc1ccccc1NC(=O)c1ccc(CN2CCC(Cc3ccccc3)CC2)cc1` it is 0.119. The figure for `CCCC(=O)Nc1ccc(C)c(O)c1` is -0.559; for `O=C(Cc1ccc([N+](=O)[O-])cc1)NCc1ccc2c(c1)OCO2` it is -0.0836; for `Cc1ccc(NS(C)(=O)=O)c(C(=O)c2ccccc2)c1` it is -0.253. Consider `Cc1ccc(Nc2c3c(nc4ncnn24)CCC3)cc1`, for which the z-score is -0.247. The figure for `COc1ccc(OC)c(/C=C2\SC(=S)N(Cc3cccnc3)C2=O)c1` is -0.477; for `COc1ccc2nc(SCC(=O)NN)cc(C)c2c1` it is 0.0672; for `CC(C)(C)c1nc(N2CCN(C(=O)c3ccco3)CC2)c2nnn(Cc3ccccc3)c2n1` it is 1.15.

Molecule `CC(=O)c1ccc(NS(=O)(=O)c2ccc3ccccc3c2)cc1` came in with a z-score of -0.168. The figure for `COc1ccc(OCCOCC(O)CN2CCOCC2)cc1` (configuration not stated) is -0.0013; for `O=C(NC1CC1)C1CCN(c2ncnc3c2sc2cccc(F)c23)CC1` it is -0.454. With `O=C1CCCN1CCC1CCN(C(=S)Nc2ccc(F)cc2)CC1` the figure was 0.218; with `CCOc1ccccc1C1CC(=O)Nc2cc(OC)c(OC)c(OC)c21` (configuration not stated), -0.0346; with `CCOC(=O)C1CCN(C(=O)c2ccc(OC)cc2OC)CC1`, -0.174. The molecule `COC(=O)c1sc(NC(=O)C2CCCO2)c(C(=O)OC)c1C` (configuration not stated) had a z-score of -0.572. With `Cn1c(Cc2csc(N)n2)nnc1SCC(=O)NC1CCCCC1` the figure was 0.186; with `c1ccc(CCc2nc(-c3cccnc3)no2)cc1`, -0.0676. The figure for `O=C(NCCCN1CCN(c2ccccc2F)CC1)Nc1ccc(F)cc1` is 0.279. With `CC(=O)Nc1cc(C(=O)N2CCc3ccccc3C2)ccc1Sc1ccc(F)cc1` the figure was -0.86.
